This continues a long series; more values of the same kind are listed elsewhere.
Experiments:
Test in all cases: concentration in plasma after dosing
Rat [1] = settings: dosed: Perfluorodecanoic acid, 2 mg/kg, oral, Male, Harlan Sprague Dawley
Rat [2] = settings: dosed: Perfluorodecanoic acid, 10 mg/kg, oral, Male, Harlan Sprague Dawley
Rat [3] = settings: dosed: Perfluorodecanoic acid, 2 mg/kg, oral, Male, Harlan Sprague Dawley; remark: listed apart in the source
Rat [4] = settings: dosed: Perfluorodecanoic acid, 20 mg/kg, oral, Male, Harlan Sprague Dawley
Rat [5] = settings: dosed: Perfluorodecanoic acid, 2 mg/kg, oral, Male, Harlan Sprague Dawley; remark: listed apart in the source
Rat [6] = settings: dosed: Perfluorodecanoic acid, 10 mg/kg, oral, Female, Harlan Sprague Dawley
Rat [7] = settings: 24 h; dosed: Perfluorodecanoic acid; 10 mg/kg; oral; Female; Harlan Sprague Dawley
Rat [8] = settings: dosed: Perfluorodecanoic acid, 20 mg/kg, oral, Male, Harlan Sprague Dawley; remark: listed apart in the source
Rat [9] = settings: dosed: Perfluorodecanoic acid, 10 mg/kg, oral, Female, Harlan Sprague Dawley; remark: listed apart in the source
Rat [10] = settings: dosed: Perfluorooctane Sulfonate, 2 mg/kg, oral, Female, Harlan Sprague Dawley
Rat [11] = settings: dosed: Perfluorooctane Sulfonate, 20 mg/kg, oral, Male, Harlan Sprague Dawley
Rat [12] = settings: dosed: Perfluorooctane Sulfonate, 20 mg/kg, oral, Female, F344
Rat [13] = settings: dosed: Perfluorooctane Sulfonate, 2 mg/kg, oral, Female, Harlan Sprague Dawley; remark: listed apart in the source
Rat [14] = settings: dosed: Perfluorooctane Sulfonate, 2 mg/kg, oral, Female, Harlan Sprague Dawley; remark: listed apart in the source
Rat [15] = settings: dosed: Perfluorooctane Sulfonate, 20 mg/kg, oral, Female, F344; remark: listed apart in the source
Rat [16] = settings: dosed: Fluorotelomer alcohol 8+2, 12 mg/kg, oral, Male, Harlan Sprague Dawley
Rat [17] = settings: dosed: Fluorotelomer alcohol 8+2, 48 mg/kg, oral, Male, Harlan Sprague Dawley
Rat [18] = settings: dosed: Perfluorooctanoic acid, 40 mg/kg, oral, Male, Harlan Sprague Dawley
Rat [19] = settings: 0.5 h; dosed: Fluorotelomer alcohol 8+2; 160 mg/kg; oral; Female; Harlan Sprague Dawley
Rat [20] = settings: 1 h; dosed: Fluorotelomer alcohol 8+2; 80 mg/kg; oral; Female; Harlan Sprague Dawley
Rat [21] = settings: 24 h; dosed: Perfluorooctanoic acid; 40 mg/kg; iv; Male; F344
Rat [22] = settings: 192 h; dosed: Fluorotelomer alcohol 8+2; 24 mg/kg; oral; Male; Harlan Sprague Dawley
Rat [23] = settings: 1 h; dosed: Fluorotelomer alcohol 8+2; 80 mg/kg; oral; Female; Harlan Sprague Dawley; remark: listed apart in the source
Rat [24] = settings: 0.5 h; dosed: Fluorotelomer alcohol 8+2; 24 mg/kg; oral; Male; Harlan Sprague Dawley
Rat [25] = settings: dosed: Fluorotelomer alcohol 8+2, 80 mg/kg, oral, Female, Harlan Sprague Dawley
Rat [26] = settings: dosed: Perfluorooctanoic acid, 40 mg/kg, oral, Male, Harlan Sprague Dawley; remark: listed apart in the source
Rat [27] = settings: dosed: Fluorotelomer alcohol 8+2, 40 mg/kg, oral, Female, Harlan Sprague Dawley
Rat [28] = settings: dosed: Fluorotelomer alcohol 8+2, 48 mg/kg, oral, Male, Harlan Sprague Dawley; remark: listed apart in the source
Rat [29] = settings: dosed: Fluorotelomer alcohol 8+2, 12 mg/kg, oral, Male, Harlan Sprague Dawley; remark: listed apart in the source
Rat [30] = settings: 9 h; dosed: Fluorotelomer alcohol 8+2; 80 mg/kg; oral; Female; Harlan Sprague Dawley
Rat [31] = settings: 24 h; dosed: Perfluorooctanoic acid; 12 mg/kg; oral; Male; Harlan Sprague Dawley
Rat [32] = settings: dosed: Perfluorooctanoic acid, 6 mg/kg, iv, Male, F344
Rat [33] = settings: dosed: Perfluorooctanoic acid, 40 mg/kg, iv, Male, F344

O=C(O)C(F)(F)C(F)(F)C(F)(F)C(F)(F)C(F)(F)C(F)(F)C(F)(F)C(F)(F)C(F)(F)F [Perfluorodecanoic acid]
Settings | concentration in plasma [ng/mL]
Rat [1], 12 h | 10800
Rat [1], 1200 h | 2300
Rat [2], 12 h | 48200
Rat [2], 864 h | 9720
Rat [3], 6 h | 6590
Rat [3], 864 h | 1670
Rat [4], 12 h | 75600
Rat [4], 1200 h | 13600
Rat [5], 6 h | 7630
Rat [5], 864 h | 1300
Rat [6], 12 h | 51400
Rat [6], 864 h | 14200
Rat [8], 0.5 h | 22200
Rat [8], 24 h | 73200
Rat [8], 1848 h | 11300
Rat [9], 0.5 h | 14900
Rat [9], 192 h | 54400
Rat [9], 1848 h | 9140

Settings | concentration in plasma [ng/mL]
Rat [7] | 58300

O=S(=O)([O-])C(F)(F)C(F)(F)C(F)(F)C(F)(F)C(F)(F)C(F)(F)C(F)(F)C(F)(F)F [Perfluorooctane Sulfonate]
Settings | concentration in plasma [ng/mL]
Rat [10], 1 h | 2220
Rat [10], 192 h | 4740
Rat [10], 2520 h | 1180
Rat [11], 1 h | 54400
Rat [11], 528 h | 56700
Rat [11], 2520 h | 4410
Rat [12], 5 min | 446
Rat [12], 192 h | 68600
Rat [12], 1200 h | 29800
Rat [13], 5 min | 70.8
Rat [13], 192 h | 4150
Rat [13], 2520 h | 1230
Rat [14], 1 h | 3310
Rat [14], 528 h | 6380
Rat [14], 2520 h | 1620
Rat [15], 5 min | 891
Rat [15], 12 h | 114000
Rat [15], 1200 h | 29800

O=C(O)C(F)(F)C(F)(F)C(F)(F)C(F)(F)C(F)(F)C(F)(F)C(F)(F)F [Perfluorooctanoic acid]
Settings | concentration in plasma [ng/mL]
Rat [16], 1 h | 375
Rat [16], 24 h | 812
Rat [17], 0.75 h | 457
Rat [17], 12 h | 2320
Rat [18], 6 h | 140000
Rat [18], 48 h | 217
Rat [25], 0.25 h | 149
Rat [25], 24 h | 260
Rat [26], 1 h | 136000
Rat [26], 12 h | 101000
Rat [27], 0.25 h | 103
Rat [27], 6 h | 882
Rat [28], 48 h | 1610
Rat [28], 192 h | 1010
Rat [29], 0.75 h | 201
Rat [29], 12 h | 617
Rat [32], 0.5 h | 46800
Rat [32], 24 h | 45600
Rat [32], 1200 h | 331
Rat [33], 0.5 h | 234000
Rat [33], 12 h | 25600

Settings | concentration in plasma [ng/mL]
Rat [19] | 397
Rat [20] | 930
Rat [21] | 819
Rat [22] | 744
Rat [23] | 703
Rat [24] | 99.5
Rat [30] | 1640
Rat [31] | 81100

Reference: EPA's CvTdb concentration-time database
